# Source: PubChem BioAssay AID1030 (National Center for Advancing Translational Sciences (NCATS), 2008)
# Screen size: about 220,000 compounds; about 16,000 (7.3%) were called active. This list was built around the results that the source calls inconclusive (neither active nor inactive); the mix of calls is not that of the screen. Calls come from the whole dose curve; as a rule, active = well fitted inhibition curve with a large enough effect (not every such curve was filed as active); inconclusive = small, poorly fitted or top-dose-only effect, or another doubt; inactive = no such curve, though single readings can be large or run the other way. Potencies of inconclusive entries are left out as doubtful fits.
# Target: Aldehyde dehydrogenase 1A1 (Homo sapiens) (UniProt P00352)
# Experiment: qHTS Assay for Inhibitors of Aldehyde Dehydrogenase 1 (ALDH1A1);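 for activity, negative = inhibition: plate controls were no enzyme wells and a reference inhibitor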
# Conditions: Purified ALDH1A1, NADH fluorescence, propionaldehyde substrate; series mostly up to 75.3 µM; activity, negative = inhibition: at the top concentration
# Potency is the fitted concentration of half-maximal effect; tags give direction and shape of the fitted curve.
# Chain of UniProt P00352 (P00352 whole entry, looked up): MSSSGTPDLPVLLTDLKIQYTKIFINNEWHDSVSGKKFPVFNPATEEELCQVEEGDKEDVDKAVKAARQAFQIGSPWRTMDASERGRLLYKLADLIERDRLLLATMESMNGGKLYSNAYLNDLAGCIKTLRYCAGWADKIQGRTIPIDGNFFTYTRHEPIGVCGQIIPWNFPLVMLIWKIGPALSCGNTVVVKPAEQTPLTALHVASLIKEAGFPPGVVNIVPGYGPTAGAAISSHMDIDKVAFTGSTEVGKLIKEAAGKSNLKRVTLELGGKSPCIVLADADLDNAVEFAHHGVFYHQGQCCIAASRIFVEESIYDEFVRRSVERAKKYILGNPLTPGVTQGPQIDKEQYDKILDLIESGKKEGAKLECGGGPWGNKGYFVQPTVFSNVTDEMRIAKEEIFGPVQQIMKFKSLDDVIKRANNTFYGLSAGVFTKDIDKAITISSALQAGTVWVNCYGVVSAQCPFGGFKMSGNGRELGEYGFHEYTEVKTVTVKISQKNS
SMILES,"activity, negative = inhibition",Potency
O=C(c1ccccc1)c1c[nH]c(C(=O)NCc2cccnc2)c1,inactive: -1.13%,–
Cc1ccc(S(=O)(=O)NCCCNC(=O)c2ccccc2)cc1,–,active: 12.6 µM
COc1cc2c3nnc(-c4ccccc4)c-3cn(Cc3ccccc3F)c2cc1OC,–,"inconclusive [inhibitor, single point]"
CC1=NCCN1CCNC(=O)Nc1ccc(F)cc1,inactive: 19.4%,–
COc1cccc(NC(=O)Nc2ccccc2Br)c1,–,"inconclusive [inhibitor, partial curve]"
Cc1ccc(OCCNC(=O)/C=C/c2ccco2)cc1C,–,active: 11.2 µM
Cc1ccc(N/C=C2\C(=O)C3(C)CCC2C3(C)C)cc1C (configuration not stated),–,active: 14.1 µM
O=C(CSc1nnc(-c2ccccc2Br)o1)N1CCN(C(=O)c2ccco2)CC1,–,active: 8.91 µM
O=C(Cn1ccc2ccccc2c1=O)NCCC(=O)N1CCN(C2CCCCC2)CC1,–,"inconclusive [inhibitor, single point]"
COc1cc(/C=N/n2c(-c3cc(C)[nH]n3)n[nH]c2=S)cc(OC)c1O,inactive: -9.96%,–
C=CC[n+]1c(-c2ccc(C)cc2)csc1Nc1ccc(NC(C)=O)cc1,inactive: -1.59%,–
O=C(NCc1ccccn1)c1cc(-c2ccccc2)nc2ccccc12,–,"inconclusive [inhibitor, single point]"
CCC(=O)N1CCN(c2ccccc2NC(=S)NC(=O)c2cccc([N+](=O)[O-])c2)CC1,–,active: 14.1 µM
COc1cccc(N2CC(O)Cn3c2nc2c3c(=O)n(CCCc3ccccc3)c(=O)n2C)c1 (configuration not stated),–,"inconclusive [inhibitor, single point]"
C#Cc1ccc([C@H]2C=C(C(=O)N3CCN(Cc4ccc5c(c4)OCO5)CC3)O[C@@H](OCc3ccc(CO)cc3)C2)cc1,–,"inconclusive [inhibitor, partial curve]"
CCOC(=O)c1cc(=O)n2nc(-c3ccc(C)cc3)nc2s1,–,"inconclusive [inhibitor, partial curve]"
COc1ccccc1OCc1n[nH]c(=S)n1Cc1ccccc1,–,"inconclusive [inhibitor, partial curve]"
S=C(Nc1ccccc1)N1CCOCC1,inactive: 3.05%,–
CCOc1ccccc1-c1nn2c(Cc3ccccc3)nnc2s1,–,"inconclusive [inhibitor, partial curve]"
Cc1ccc(Cn2c(O)c(N=NC(=S)Nc3ccccc3F)c3ccccc32)cc1,–,active: 11.2 µM
Cc1occc1C(=O)NNC(=O)c1ccccc1Br,inactive: -9.38%,–
C/C(CCN1CCCc2nc(C)c(C)cc21)=N\OC[C@@H](O)COCc1ccco1,–,"inconclusive [inhibitor, partial curve]"
O=C1CCC/C1=C\c1ccccc1,–,"inconclusive [inhibitor, single point]"
CC(=O)Nc1ccc(-c2nnn(CC(=O)c3ccccc3)n2)cc1Cl,–,"inconclusive [inhibitor, single point]"

SMILES,"activity, negative = inhibition",Potency
CCN(CC)CCCN1C(=O)C(O)=C(C(=O)c2ccc(C)o2)C1c1ccc(C)o1 (configuration not stated),–,"inconclusive [inhibitor, single point]"
O=C1NC2(CCCCC2)C(=O)N1/N=C/c1ccccc1Br,–,active: 4.47 µM
O=C(COC(=O)C1(c2ccc(Cl)cc2)CCCC1)NC1CCS(=O)(=O)C1 (configuration not stated),–,"inconclusive [inhibitor, single point]"
Cc1ccccc1-n1c(=O)cc(N2CCc3ccccc3C2)[nH]c1=O,–,"inconclusive [inhibitor, partial curve]"
Cn1c(=O)c2c(-c3ccccc3)n(Cc3cccnc3)cc2n(C)c1=O,–,"inconclusive [inhibitor, single point]"
O=C(Nc1ccc2c(c1)OCCO2)C1CCCN1S(=O)(=O)c1cccc2cccnc12 (configuration not stated),–,"inconclusive [inhibitor, single point]"
CC(C)CCNC(=O)Nc1ccc2c(c1)N(C)C(=O)CS2,inactive: 2.32%,–
CC(C)n1nnnc1SCC(=O)N1CCN(C(=O)c2ccco2)CC1,–,active: 25.1 µM
CCCN1C(=O)SC(CC(=O)Nc2ccccc2)C1=O (configuration not stated),–,active: 20 µM
COc1ccc(-c2cc(C#N)nc(Oc3ccc(Cl)cc3)n2)cc1,–,"inconclusive [inhibitor, partial curve]"
CCOC(=O)C1=C(C)NC(=S)N(C(C)=O)C1c1ccc(Cl)cc1 (configuration not stated),–,active: 8.91 µM
c1ccc(-n2ncc3c(NCc4cccs4)ncnc32)cc1,–,"inconclusive [inhibitor, single point]"
C=CCn1c(N)c(C(=O)NCc2cccnc2)sc1=S,–,"inconclusive [inhibitor, single point]"
CCC(Sc1nc2ccc(N)cc2s1)C(=O)Nc1nccs1 (configuration not stated),–,active: 7.94 µM
Cc1ccc(C2CC(=O)N3CN(c4ccc(Br)cc4)CSC3=C2C#N)o1 (configuration not stated),–,"inconclusive [inhibitor, partial curve]"
CCc1[nH]nc2c1C(c1ccc(Br)s1)C(C#N)=C(N)O2 (configuration not stated),–,"inconclusive [inhibitor, single point]"
COc1ccc(N(CC(O)Cn2c(C)nc3ccccc32)S(=O)(=O)c2ccccc2)cc1 (configuration not stated),–,"inconclusive [inhibitor, single point]"
CCCCCn1c(S(=O)(=O)O)nc2ccccc21,–,"inconclusive [inhibitor, single point]"
Cc1oc(-c2ccc3c(c2)OCCO3)cc1C(=O)O,–,"inconclusive [inhibitor, partial curve]"
Cc1c(NC(=O)CCc2ccccc2)cccc1[N+](=O)[O-],–,"inconclusive [inhibitor, single point]"
Cc1cc(NC(=O)CCC(=O)N(CC(=O)NC2CCCC2)Cc2ccc3c(c2)OCO3)no1,inactive: 3.44%,–
Cc1ccc(NCCC(=O)c2ccccc2)cc1Cl,–,active: 3.16 µM
CN1CCc2c(OCC(=O)N3CCCc4ccccc43)cccc2C1=O,–,"inconclusive [inhibitor, single point]"
